# Experimental data from PMC6919601, “Identification of Plasmodium dipeptidyl aminopeptidase allosteric inhibitors by high throughput screening” (PLoS ONE, 2019).
# Among all 110,000 compounds or so, about 230 (0.21%) showed an effect of 50% or more. The list shows a part of the results.
# Target: DPAP1 (Plasmodium falciparum, UniProt Q8IIJ9)
# Experiment: primary screen, percent inhibition; read by cleavage of a fluorogenic dipeptide substrate; higher = more effect of the substance
# Set-up: species or system P. falciparum D10 trophozoite lysates; single well
# 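Note: 30 min substrate incubation versus DMSO and 10 µM JCP410 controls.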
# DPAP1, sequence (Q8IIJ9 whole entry, looked up): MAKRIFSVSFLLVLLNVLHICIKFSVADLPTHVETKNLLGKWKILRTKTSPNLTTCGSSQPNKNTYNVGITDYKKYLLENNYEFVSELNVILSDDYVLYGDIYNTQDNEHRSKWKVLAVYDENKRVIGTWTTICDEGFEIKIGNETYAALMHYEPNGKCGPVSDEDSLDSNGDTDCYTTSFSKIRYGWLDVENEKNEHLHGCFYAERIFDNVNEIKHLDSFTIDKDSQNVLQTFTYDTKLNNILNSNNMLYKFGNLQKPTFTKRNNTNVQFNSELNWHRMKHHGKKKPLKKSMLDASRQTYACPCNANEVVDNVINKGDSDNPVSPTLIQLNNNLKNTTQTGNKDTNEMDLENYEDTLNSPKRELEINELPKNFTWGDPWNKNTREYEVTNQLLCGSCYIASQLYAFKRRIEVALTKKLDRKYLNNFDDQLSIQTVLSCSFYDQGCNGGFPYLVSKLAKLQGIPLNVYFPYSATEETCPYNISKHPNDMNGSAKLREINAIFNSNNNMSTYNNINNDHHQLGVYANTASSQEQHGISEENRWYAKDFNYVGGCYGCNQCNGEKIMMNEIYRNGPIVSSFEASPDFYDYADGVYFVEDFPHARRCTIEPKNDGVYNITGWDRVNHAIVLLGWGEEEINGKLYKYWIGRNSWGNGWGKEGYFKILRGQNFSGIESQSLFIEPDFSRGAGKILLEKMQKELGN
row,SMILES,% Inhibition @ 10 uM [%]
1,COc1cc(/C=C2/SC(=O)N(C(C)C)C2=O)cc(Br)c1OCC(=O)O,3.91
2,O=C(NCc1cccnc1)C1CCCCN1S(=O)(=O)c1ccc(F)cc1 (centres unmarked),-0.972
3,CCOC(=O)C(C#N)c1nc2ccccc2nc1N1CCOCC1 (centres unmarked),4.44
4,CS(=O)(=O)C1=NSC2=NC(=O)/C(=C\c3cccc4ccccc34)C(=N)N21,-3.39
5,COc1ccccc1N(CC(=O)NC1CC1)S(=O)(=O)c1ccccc1,-2.03
6,O=C(Cc1ccccc1)NCc1nc2ccccc2n1Cc1ccccc1,-0.551
7,COc1ccc(/C=C(\NC(C)=O)C(=O)N2CCNCC2)cc1,-0.988
8,CCOC(=O)c1ccccc1C(=O)c1ccccc1,-3.04
9,CC1=C(C(=O)Nc2ccc(F)cc2)C(c2ccncc2)n2ncnc2N1 (centres unmarked),3.26
10,CC1SC(c2ccccc2)N(CCc2ccccc2)C1=O (centres unmarked),-4.21
11,O=C(CN1CCOCC1)c1c[nH]c2ccccc12,7.5
12,CC(C)CCC1(CCc2ccncc2)C(=O)NC(=O)NC1=O,-0.992
13,CC1CC(C)CN(CCCNC(=O)C2CCN(S(C)(=O)=O)CC2)C1 (centres unmarked),-1.34
14,O=C1CC2(CCCCCC2)Oc2ccc(O)cc21,4.79
15,CCOC(=O)C1CCCN(C2CCN(Cc3ccccc3)CC2)C1 (centres unmarked),0.162
16,CCCc1nn2cc(-c3ccc(Br)cc3)nc2s1,0.758
17,COc1ccc(C(=O)C2=C(O)C(=O)N(CCCN(C)C)C2c2ccc(Cl)cc2)c(C)c1 (centres unmarked),-1.61
18,CCOc1cc(Br)cc(/C=C2\S/C(=N/c3cccc(C(=O)O)c3)N(C)C2=O)c1O,6.97
19,Cc1ccccc1CSc1nc2nccnc2c(=O)n1Cc1ccc2c(c1)OCO2,-0.696
20,COc1ccc(OC)c(C2CC(=O)N=C(NC(=O)c3cccnc3)N2)c1 (centres unmarked),7.15
21,Cc1c(C(=O)N2CCN(c3ccccn3)CC2)sc2nc3n(c(=O)c12)CCCCC3,-1.08
22,OCC1(CO)C2C3C4CC5C6C4C2C6C1C53 (centres unmarked),-5.28
23,Cc1cccc(C)c1NC(=O)CN1CCOCC1,0.00784
24,C=CCOc1ccc(C2c3c(oc4ccccc4c3=O)C(=O)N2c2nc(C)c(C(=O)OC)s2)cc1 (centres unmarked),3.12
25,O=C(c1cc(C2CC2)nc2ccccc12)N1N=C(C(F)F)CC1(O)C(F)F (centres unmarked),0.389
26,CCCS(=O)(=O)N1CCC(C(=O)NC2CCCC2)CC1,1.62

row,SMILES,% Inhibition @ 10 uM [%]
1,CCOc1ccccc1N1CCN(Cc2ccccc2OC)CC1,-3.71
2,Cc1ccccc1NC(=O)c1ccc2c(c1)CCN2S(C)(=O)=O,-3.25
3,CC(C)CCOCC(O)Cn1c2ccccc2c2ccccc21 (centres unmarked),-1.25
4,CCC(O)c1nc2ccccc2n1Cc1c(F)cccc1Cl (centres unmarked),2.05
5,CCOC(=O)c1c(S(=O)(=O)NCc2ccco2)c(C)n(C)c1C,0.184
6,CN(Cc1ccccc1)c1nnc(NC(=O)c2cc(-c3ccc(Br)cc3)on2)s1,3.3
7,O=C(CCC(=O)N1Cc2ccccc2Oc2ncccc21)NCc1ccco1,-1.7
8,Cc1ccc(Oc2cc(-n3ncc(C(N)=O)c3N)ncn2)cc1,1.57
9,NC1=NC(=O)CC(Cc2ccccc2)N1 (centres unmarked),8.98
10,N#CC1=C(N)n2ncnc2NC1c1ccc(F)cc1 (centres unmarked),4.85
11,CCC(CN1CCOCC1)NS(=O)(=O)c1c(C)nc2scc(C)n2c1=O (centres unmarked),-2.7
12,O=C(c1ccccc1)c1ccc(NS(=O)(=O)c2ccc(F)cc2)cc1,3.29
13,CN(C)CCN(C)Cc1ccc2c(c1)OCO2,-4.58
14,CC(C)C[C@H](NC(=O)OC(c1ccccc1)c1ccccc1)C(=O)NCC#N,-3.04
15,O=C1c2ccccc2C(O)N1Cc1ccccc1 (centres unmarked),-4.98
16,Cc1ccc(C)c(NC(=O)CN(C2CCCCC2)S(=O)(=O)c2ccccc2)c1,1.96
17,O=C(CNC(=O)c1cccs1)NCCc1ccccc1,0.387
18,CCOC(=O)N1CCN(C(=O)CSc2cc(C)nc3c(-c4ccccc4OC)c(C)nn23)CC1,0.0198
19,CCn1c(=O)c(C(=O)Nc2nc3ccccc3s2)c(O)c2ccccc21,0.431
20,CCCc1[nH]nc2c1C(c1ccco1)C(C#N)=C(N)O2 (centres unmarked),-2.89
21,Cc1ccc(N2C(=O)CC3CS(=O)(=O)CC32)c(C)c1 (centres unmarked),2.17
22,CCOc1cc(C(=O)NC2=NCCS2)cc(OCC)c1OCC,-1.44
23,CCN1CCC(NCCCN2CCOCC2)CC1,1.88
24,COCCN1C(=O)c2oc3ccc(F)cc3c(=O)c2C1c1cccc(O)c1 (centres unmarked),2.31
25,COc1cc(-c2noc(-c3cc4ccccc4oc3=O)n2)cc(OC)c1OC,7.52
26,Cc1c(Cl)cccc1NC1=NC(=O)/C(=C/c2ccc(OCC(=O)O)cc2)S1,2.43

row,SMILES,% Inhibition @ 10 uM [%]
1,Cn1ncc2c(N3CC=C(c4ccccc4)CC3)ncnc21,6.29
2,COc1ccc(C2N(C(=O)CN3CCCC3)CCN2S(=O)(=O)c2ccccc2)cc1 (centres unmarked),3.16
3,O=C(NCc1nnc(S)n1Cc1ccccc1)c1ccc(S(=O)(=O)N2CCOCC2)cc1,1.67
4,COc1ccc(C(=O)C2=C(O)C(=O)N(c3nc4ccc(C)cc4s3)C2c2cccnc2)cc1 (centres unmarked),5.09
5,CC(NC(=O)CN1CCCCC1)C1CC2CCC1C2 (centres unmarked),-1.32
6,N#Cc1c(NC(=S)NC(=O)c2cccnc2)sc2c1CCCC2,4.65
7,CN(Cc1ccccc1)C(=O)CSc1ccc(Cl)cc1,0.674
8,CCN1CCC2(CC1)OC(=O)C(C)=C2C(=O)NCCCOC,-0.501
9,O=C(CSc1nnc(CNC(=O)c2c(F)cccc2Cl)o1)NCC1CCCO1 (centres unmarked),-5.27
10,COc1ccc2ccccc2c1C=C1C(=O)OC(C)(C)OC1=O,-0.339
11,CCOc1ccc(C2c3c(oc4ccc(F)cc4c3=O)C(=O)N2CC2CCCO2)cc1OC (centres unmarked),-7.33
12,O=c1c(CN2CCCC(O)C2)coc2ccccc12 (centres unmarked),-6.21
13,CCCC(=O)Nc1ccc2c(c1)c1ccccc1n2CC,4.11
14,Cc1c(-c2cccc(Cl)c2)nc2ccccc2c1C(=O)NCCN1CCOCC1,-1.1
15,Cc1cccc(C)c1N1C(=O)c2ccc(C(=O)O)cc2C1=O,2.27
16,COc1cc(SC)ccc1C(=O)Nc1cc(Cl)ccc1C,-0.981
17,O=C(Cn1ncc2c(Cl)cccc21)NC1CCCCCC1,-2.88
18,CCc1ccc(S(=O)(=O)NCc2csc(C)n2)cc1,-0.72
19,CC(C)(C)c1ccccc1OCCCCN1CCCC1,-2.12
20,O=C1S/C(=C/c2ccccc2F)C(=O)N1CCNC1=NS(=O)(=O)c2ccccc21,-1.22
21,NC(=O)c1c(NC(=O)CCCC(=O)O)sc2c1CCCCCC2,0.76
22,CCOc1ccc(CCNCc2c(C(=O)O)n(Cc3ccc(F)cc3)c3cc(C)ccc23)cc1,1.26
23,Cc1cc(S(=O)(=O)N2CCn3c(nc4ccccc43)C2)ccc1F,2.34
24,O=C(Cn1ncc2c3ccccc3nc-2c1O)NCCCN1CCOCC1,1.19
25,CCn1cc(/C=C(\NC(=O)c2ccc(C)cc2)C(=O)N2CCN(C)CC2)c2ccccc21,4.8
26,Cc1nc(Nc2ncc3c(n2)CC(C)(C)CC3=O)nc2ccccc12,5.31

row,SMILES,% Inhibition @ 10 uM [%]
1,CCOc1ccc(CNC(=O)C(CC)n2nc(C)c3c(C)n(-c4ccccc4)nc3c2=O)cc1 (centres unmarked),-4.57
2,Clc1ccccc1N1CCN(Cc2c[nH]c3ccccc23)CC1,-2.56
3,CS(=O)(=O)N(CC(=O)Nc1ccc(F)c(Cl)c1)C1CCCCC1,-9.31
4,CC12CN3CC(C)(CN(C1)C31CCCC1)C2=O,-4.35
5,CC(C)CCNC(=O)Cn1nc(-c2ccccc2)ccc1=O,0.514
6,COc1cc(C)ccc1OCCOc1ccc(/C=C2/C(=N)N3OC(C)=CC3=NC2=O)cc1Cl,2
7,Cc1ccc(NC(=O)C(C)S(=O)(=O)c2nc3nc(C)cc(C)n3n2)cc1 (centres unmarked),-5.19
8,COc1ccccc1-c1nnc2sc(-c3cccnc3)nn12,1.25
9,CN(C)CCN(Cc1ccccc1)C(=O)c1cc2c(s1)-c1ccccc1OC2,-1.37
10,FC(F)(F)c1cccc(-n2c(S)nnc2CN2CCSCC2)c1,-5.48
11,CCOc1cc(C2C(C#N)=C(N)OC3=C2C(=O)CC(C)(C)C3)ccc1OC(C)C (centres unmarked),-0.941
12,O=C1CCCc2c1nc(-c1ccco1)n2O,-1.5
13,CCC(C)(C)C1CCc2c(sc(N)c2C(=O)OC)C1 (centres unmarked),0.132
14,N#CCNC(=O)[C@H](Cc1csc2ccccc12)NC(=O)OCc1ccccc1,-1.41
15,O=C(NCC(O)c1ccccc1)c1nc(-c2ccc3c(c2)OCO3)no1 (centres unmarked),-1.85
16,Cc1cccc(-n2ncc(C(=O)NCc3ccccc3)c2C2CCN(C(=O)OC(C)(C)C)CC2)c1,-9.2
17,Cc1ccc(Nc2nc(-c3ccc(S(=O)(=O)N4CCCCC4)cc3)cs2)cc1,-0.591
18,CCCNC(=O)NC1(C(F)(F)F)Oc2cc(Cl)c(Cl)cc2O1,-2.9
19,c1ccc(CC2CCN(CCCNc3nc4ccccc4n4nnnc34)CC2)cc1,4.33
20,CC(C)NC(=O)CSc1c2c(nc3ccc(Cl)cc13)CCCC2,-8.9
21,COc1ccc(N2C(=O)CC(N(CCc3ccccc3)C(=O)c3ccccc3)C2=O)cc1 (centres unmarked),2.09
22,CCCC(CCC)C(=O)Nc1cccc(NC(=O)c2cccs2)c1,-8.68
23,Nc1ccc(-c2nnc(-c3ccc(-c4ccccc4)cc3)o2)cc1,17.4
